Test results: patent US20120178908A1 (Novo Nordisk, published 2012)

How the values were obtained:
[1] = target: T1, TLT-1 18-188 relipidated in 20:80 PS:PC vesicles (human, UniProt Q86YW5 18-188); assay: cell-based or functional assay
T1 sequence: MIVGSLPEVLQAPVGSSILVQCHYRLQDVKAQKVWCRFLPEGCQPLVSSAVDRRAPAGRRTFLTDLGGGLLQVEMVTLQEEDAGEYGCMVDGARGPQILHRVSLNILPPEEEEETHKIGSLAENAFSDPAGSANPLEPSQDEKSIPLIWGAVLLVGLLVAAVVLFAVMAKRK

[2] = target: T2, TLT-1 receptor on the surface of activated human platelets (human, UniProt Q86YW5 16-311); assay: cell-based or functional assay
T2 sequence: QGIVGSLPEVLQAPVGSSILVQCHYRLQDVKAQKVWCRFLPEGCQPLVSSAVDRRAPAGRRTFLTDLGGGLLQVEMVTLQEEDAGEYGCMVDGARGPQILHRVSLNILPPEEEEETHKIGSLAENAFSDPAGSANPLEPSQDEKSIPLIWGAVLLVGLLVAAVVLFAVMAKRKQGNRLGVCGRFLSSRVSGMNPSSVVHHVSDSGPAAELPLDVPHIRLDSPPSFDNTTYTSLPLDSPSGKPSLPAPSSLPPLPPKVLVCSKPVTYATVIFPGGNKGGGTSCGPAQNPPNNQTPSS

Binder | FVII-mediated FXa generation % Activity lipidated TLT-1 [1] | FVIIa-mediated FXa generation % Activity lipidated TLT-1 [1] | FVII-mediated FXa generation % Activity activated plts (n 1) [2] | FVIIa-mediated FXa generation % Activity activated plts (n 1) [2] | FVII-mediated FXa generation % Activity activated plts (n 2) [2] | FVIIa-mediated FXa generation % Activity activated plts (n 2) [2]
mAb 0012-(LC-L2-TF)2;HC2 (other) light chain-linker-TF: DVVMTQTPLSLPVSLGDQASISCRSSQSLVHRNGNTYFHWCLQKPGQSPKLLIYKVSNRFSGVPDRFSGSGSGTDFTLKISRVEAEDLGVYFCSQSTHVPYTFGGGTKLEIKRTVAAPSVFIFPPSDEQLKSGTASVVCLLNNFYPREAKVQWKVDNALQSGNSQESVTEQDSKDSTYSLSSTLTLSKADYEKHKVYACEVTHQGLSSPVTKSFNRGECGSGGGGSSGTTNTVAAYNLTWKSTNFKTILEWEPKPVNQVYTVQISTKSGDWKSKCFYTTDTECDLTDEIVKDVKQTYLARVFSYPAGNVESTGSAGEPLYENSPEFTPYLETNLGQPTIQSFEQVGTKVNVTVEDERTLVRRNNTFLSLRDVFGKDLIYTLYYWKSSSSGKKTAKTNTNEFLIDVDKGENYCFSVQAVIPSRTVNRKSTDSPVECMGQEKGEFRE heavy chain: EVKLLESGGGLVQPGGSLKLSCAASGFDFSRYWMTWVRQAPGKGLEWIGEINPDSSTINYTPSLKDKFIISRDNAKNTLYLQMSEVRSEDTALYYCASGVFTSWGQGTLVTVSAASTKGPSVFPLAPCSRSTSESTAALGCLVKDYFPEPVTVSWNSGALTSGVHTFPAVLQSSGLYSLSSVVTVPSSSLGTKTYTCNVDHKPSNTKVDKRV[human IgG4 Fc with S228P (EU numbers) omitted] | 45% | 80% | 22% | 23% | – | –
mAb 0012-(LC-L5-TF)2;HC2 (other) light chain-linker-TF: DVVMTQTPLSLPVSLGDQASISCRSSQSLVHRNGNTYFHWCLQKPGQSPKLLIYKVSNRFSGVPDRFSGSGSGTDFTLKISRVEAEDLGVYFCSQSTHVPYTFGGGTKLEIKRTVAAPSVFIFPPSDEQLKSGTASVVCLLNNFYPREAKVQWKVDNALQSGNSQESVTEQDSKDSTYSLSSTLTLSKADYEKHKVYACEVTHQGLSSPVTKSFNRGECGGGGSGSGGGGSGGGGSGGGGSSGTTNTVAAYNLTWKSTNFKTILEWEPKPVNQVYTVQISTKSGDWKSKCFYTTDTECDLTDEIVKDVKQTYLARVFSYPAGNVESTGSAGEPLYENSPEFTPYLETNLGQPTIQSFEQVGTKVNVTVEDERTLVRRNNTFLSLRDVFGKDLIYTLYYWKSSSSGKKTAKTNTNEFLIDVDKGENYCFSVQAVIPSRTVNRKSTDSPVECMGQEKGEFRE heavy chain: EVKLLESGGGLVQPGGSLKLSCAASGFDFSRYWMTWVRQAPGKGLEWIGEINPDSSTINYTPSLKDKFIISRDNAKNTLYLQMSEVRSEDTALYYCASGVFTSWGQGTLVTVSAASTKGPSVFPLAPCSRSTSESTAALGCLVKDYFPEPVTVSWNSGALTSGVHTFPAVLQSSGLYSLSSVVTVPSSSLGTKTYTCNVDHKPSNTKVDKRV[human IgG4 Fc with S228P (EU numbers) omitted] | 68% | 87% | – | – | 46% | 24%
mAb 0012-(LC-L3-TF)2;HC2 (other) light chain-linker-TF: DVVMTQTPLSLPVSLGDQASISCRSSQSLVHRNGNTYFHWCLQKPGQSPKLLIYKVSNRFSGVPDRFSGSGSGTDFTLKISRVEAEDLGVYFCSQSTHVPYTFGGGTKLEIKRTVAAPSVFIFPPSDEQLKSGTASVVCLLNNFYPREAKVQWKVDNALQSGNSQESVTEQDSKDSTYSLSSTLTLSKADYEKHKVYACEVTHQGLSSPVTKSFNRGECGSGGGGSGGGGSSGTTNTVAAYNLTWKSTNFKTILEWEPKPVNQVYTVQISTKSGDWKSKCFYTTDTECDLTDEIVKDVKQTYLARVFSYPAGNVESTGSAGEPLYENSPEFTPYLETNLGQPTIQSFEQVGTKVNVTVEDERTLVRRNNTFLSLRDVFGKDLIYTLYYWKSSSSGKKTAKTNTNEFLIDVDKGENYCFSVQAVIPSRTVNRKSTDSPVECMGQEKGEFRE heavy chain: EVKLLESGGGLVQPGGSLKLSCAASGFDFSRYWMTWVRQAPGKGLEWIGEINPDSSTINYTPSLKDKFIISRDNAKNTLYLQMSEVRSEDTALYYCASGVFTSWGQGTLVTVSAASTKGPSVFPLAPCSRSTSESTAALGCLVKDYFPEPVTVSWNSGALTSGVHTFPAVLQSSGLYSLSSVVTVPSSSLGTKTYTCNVDHKPSNTKVDKRV[human IgG4 Fc with S228P (EU numbers) omitted] | 59% | 86% | – | – | 40% | 23%
mAb 0012-(LC-L6-TF)2;HC2 (other) light chain-linker-TF: DVVMTQTPLSLPVSLGDQASISCRSSQSLVHRNGNTYFHWCLQKPGQSPKLLIYKVSNRFSGVPDRFSGSGSGTDFTLKISRVEAEDLGVYFCSQSTHVPYTFGGGTKLEIKRTVAAPSVFIFPPSDEQLKSGTASVVCLLNNFYPREAKVQWKVDNALQSGNSQESVTEQDSKDSTYSLSSTLTLSKADYEKHKVYACEVTHQGLSSPVTKSFNRGECGGGGSGGGGSGSGGGGSGGGGSGGGGSSGTTNTVAAYNLTWKSTNFKTILEWEPKPVNQVYTVQISTKSGDWKSKCFYTTDTECDLTDEIVKDVKQTYLARVFSYPAGNVESTGSAGEPLYENSPEFTPYLETNLGQPTIQSFEQVGTKVNVTVEDERTLVRRNNTFLSLRDVFGKDLIYTLYYWKSSSSGKKTAKTNTNEFLIDVDKGENYCFSVQAVIPSRTVNRKSTDSPVECMGQEKGEFRE heavy chain: EVKLLESGGGLVQPGGSLKLSCAASGFDFSRYWMTWVRQAPGKGLEWIGEINPDSSTINYTPSLKDKFIISRDNAKNTLYLQMSEVRSEDTALYYCASGVFTSWGQGTLVTVSAASTKGPSVFPLAPCSRSTSESTAALGCLVKDYFPEPVTVSWNSGALTSGVHTFPAVLQSSGLYSLSSVVTVPSSSLGTKTYTCNVDHKPSNTKVDKRV[human IgG4 Fc with S228P (EU numbers) omitted] | 67% | 90% | – | – | 47% | 26%

More lines, now with the values ahead:

FVII-mediated FXa generation % Activity lipidated TLT-1 [1] | FVIIa-mediated FXa generation % Activity lipidated TLT-1 [1] | FVII-mediated FXa generation % Activity activated plts (n 1) [2] | FVIIa-mediated FXa generation % Activity activated plts (n 1) [2] | FVII-mediated FXa generation % Activity activated plts (n 2) [2] | FVIIa-mediated FXa generation % Activity activated plts (n 2) [2] | Binder
68% | 86% | – | – | 47% | 24% | mAb 0012-(LC-L7-TF)2;HC2 (other) light chain-linker-TF: DVVMTQTPLSLPVSLGDQASISCRSSQSLVHRNGNTYFHWCLQKPGQSPKLLIYKVSNRFSGVPDRFSGSGSGTDFTLKISRVEAEDLGVYFCSQSTHVPYTFGGGTKLEIKRTVAAPSVFIFPPSDEQLKSGTASVVCLLNNFYPREAKVQWKVDNALQSGNSQESVTEQDSKDSTYSLSSTLTLSKADYEKHKVYACEVTHQGLSSPVTKSFNRGECGGGGSGGGGSGGGGSGSGGGGSGGGGSGGGGSSGTTNTVAAYNLTWKSTNFKTILEWEPKPVNQVYTVQISTKSGDWKSKCFYTTDTECDLTDEIVKDVKQTYLARVFSYPAGNVESTGSAGEPLYENSPEFTPYLETNLGQPTIQSFEQVGTKVNVTVEDERTLVRRNNTFLSLRDVFGKDLIYTLYYWKSSSSGKKTAKTNTNEFLIDVDKGENYCFSVQAVIPSRTVNRKSTDSPVECMGQEKGEFRE heavy chain: EVKLLESGGGLVQPGGSLKLSCAASGFDFSRYWMTWVRQAPGKGLEWIGEINPDSSTINYTPSLKDKFIISRDNAKNTLYLQMSEVRSEDTALYYCASGVFTSWGQGTLVTVSAASTKGPSVFPLAPCSRSTSESTAALGCLVKDYFPEPVTVSWNSGALTSGVHTFPAVLQSSGLYSLSSVVTVPSSSLGTKTYTCNVDHKPSNTKVDKRV[human IgG4 Fc with S228P (EU numbers) omitted]
70% | 88% | – | – | 45% | 25% | mAb 0012-(LC-L8-TF)2;HC2 (other) light chain-linker-TF: DVVMTQTPLSLPVSLGDQASISCRSSQSLVHRNGNTYFHWCLQKPGQSPKLLIYKVSNRFSGVPDRFSGSGSGTDFTLKISRVEAEDLGVYFCSQSTHVPYTFGGGTKLEIKRTVAAPSVFIFPPSDEQLKSGTASVVCLLNNFYPREAKVQWKVDNALQSGNSQESVTEQDSKDSTYSLSSTLTLSKADYEKHKVYACEVTHQGLSSPVTKSFNRGECGGGGSGGGGSGGGGSGGGGSGSGGGGSGGGGSGGGGSSGTTNTVAAYNLTWKSTNFKTILEWEPKPVNQVYTVQISTKSGDWKSKCFYTTDTECDLTDEIVKDVKQTYLARVFSYPAGNVESTGSAGEPLYENSPEFTPYLETNLGQPTIQSFEQVGTKVNVTVEDERTLVRRNNTFLSLRDVFGKDLIYTLYYWKSSSSGKKTAKTNTNEFLIDVDKGENYCFSVQAVIPSRTVNRKSTDSPVECMGQEKGEFRE heavy chain: EVKLLESGGGLVQPGGSLKLSCAASGFDFSRYWMTWVRQAPGKGLEWIGEINPDSSTINYTPSLKDKFIISRDNAKNTLYLQMSEVRSEDTALYYCASGVFTSWGQGTLVTVSAASTKGPSVFPLAPCSRSTSESTAALGCLVKDYFPEPVTVSWNSGALTSGVHTFPAVLQSSGLYSLSSVVTVPSSSLGTKTYTCNVDHKPSNTKVDKRV[human IgG4 Fc with S228P (EU numbers) omitted]
